Measured values: PubChem BioAssay AID588342 (National Center for Advancing Translational Sciences (NCATS), 2011)
The campaign covered roughly 360,000 compounds. About 25,000 (6.9%) were called active. The inconclusive results got no clear call from the source; some entries with a clear call stand among them for comparison. Calls follow the shape of the dose curve; as a rule, active = well fitted inhibition curve with a large enough effect; inconclusive = small, poorly fitted or top-dose-only effect; inactive = flat fitted curve, though single readings scatter. Potencies beside an inconclusive call are fits to weak or partial responses and may not hold up. A structure can be active in one record and inactive in another.

Target: Luciferin 4-monooxygenase (Photinus pyralis) (UniProt P08659)
Assay: qHTS profiling assay for firefly luciferase inhibitor/activator using purifed enzyme and Km concentrations of substrates (counterscreen for miR-21 project); also: nearly all actives have a fitted effect of over 55% in size;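 as to activity change, negative = inhibition: plate controls were vehicle for no effect and reference inhibitor for full effect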
Details: purified FLuc, luminescence inhibition; series mostly up to 57.5 µM; activity change, negative = inhibition: at the top concentration
Outline: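 Biochemical qHTS of compounds, final roughly 60 µM downward over six points, against 10 nM purified firefly luciferase using Km concentrations of substrates (10 uM D-luciferin, 10 uM ATP) in Tris acetate pH 7.5 buffer; luminescence output.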
Potency is read from the fitted curve at half-maximal effect; tags tell the direction and shape of the fitted curve.

Sequence of UniProt P08659 (P08659 whole entry, looked up): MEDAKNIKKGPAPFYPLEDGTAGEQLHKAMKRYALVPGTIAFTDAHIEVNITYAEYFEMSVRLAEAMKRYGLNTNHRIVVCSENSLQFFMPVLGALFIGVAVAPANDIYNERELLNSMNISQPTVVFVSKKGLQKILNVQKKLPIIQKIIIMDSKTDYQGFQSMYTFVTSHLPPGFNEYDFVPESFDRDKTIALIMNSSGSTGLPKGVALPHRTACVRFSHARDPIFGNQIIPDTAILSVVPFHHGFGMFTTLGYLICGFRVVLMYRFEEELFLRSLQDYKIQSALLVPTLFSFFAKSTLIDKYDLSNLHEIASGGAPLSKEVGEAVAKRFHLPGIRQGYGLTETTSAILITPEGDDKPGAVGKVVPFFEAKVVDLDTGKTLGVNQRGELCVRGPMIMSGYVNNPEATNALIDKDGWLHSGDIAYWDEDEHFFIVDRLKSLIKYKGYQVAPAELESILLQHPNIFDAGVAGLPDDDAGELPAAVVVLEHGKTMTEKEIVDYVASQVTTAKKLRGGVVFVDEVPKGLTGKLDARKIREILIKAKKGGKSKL

Compound | Potency | activity change, negative = inhibition
Cc1cc(C)n(CCNC(=O)c2ccc3c(c2)OCO3)n1 | inconclusive: 26.9 µM [inhibitor, single point] | 
O=C(Cc1c[nH]c2ccccc12)Nc1nc2ccccc2[nH]1 | inconclusive: 19 µM [inhibitor, single point] | 
COCCn1c(C)cc(C2=NNC(=Nc3ccc(OC)cc3)SC2)c1C | inconclusive: 10.7 µM [inhibitor, partial curve] | 
Cc1ccc(CN2CCCn3nc(C(=O)NCc4cc(C)ccc4C)cc3C2=O)cc1 |  | inactive: -14.9%
C/C=C/C(O)c1ccc2ccccc2c1 (stereo unspecified) | inconclusive: 21.3 µM [inhibitor, partial curve, poor fit] | 
CC(=O)NCCC(=O)Nc1nc(-c2c[nH]c3ccccc23)cs1 | inconclusive: 37.9 µM [inhibitor, partial curve, poor fit] | 
CC1(C2CC2)NC(=O)N(CC(=O)Nc2ccccc2F)C1=O (stereo unspecified) |  | inactive: 3.47%
O=C(Nc1ccccc1)Nc1ccncc1 | inconclusive: 30.1 µM [inhibitor, single point] | 
CCCCN(CC)Cc1ccc(CNC(=S)Nc2ccc(C)cc2Cl)o1 | inconclusive: 30.1 µM [inhibitor, single point] | 
COc1ccc(/C=C/C(=O)NC2CC3CCC2C3)cc1 (stereo unspecified) | active: 16.9 µM | 
Cc1ccccc1N(CC(=O)N/N=C/c1ccc(Cl)cc1)C(=O)c1ccccc1 | inconclusive: 12 µM [inhibitor, partial curve, poor fit] | 
Cc1nn(C)cc1CN(C)C(=O)CCc1nnc(CCC2CCCCC2)o1 | inconclusive: 30.1 µM [inhibitor, partial curve, poor fit] | 
CCNC(=O)COc1ccc(OCc2ccccc2)cc1 | inconclusive: 23.9 µM [inhibitor, single point] | 
Cc1ccc2[nH]c3c(NCCN4CCOCC4)ncnc3c2c1 | inconclusive: 21.3 µM [inhibitor, partial curve, poor fit] | 
O=C(CCCN1C(=O)/C(=C\c2cccs2)SC1=S)Nc1ccc(O)cc1C(=O)O | inconclusive: 23.9 µM [inhibitor, partial curve, poor fit] | 
CS(=O)(=O)c1ccc2nc(NC(=O)c3ccccc3Br)sc2c1 | active: 9.53 µM | 
CC(/C=N/NC(=O)c1cc(C2CC2)[nH]n1)=C\c1ccccc1 | inconclusive: 2.39 µM [inhibitor, full curve] | 
CCC(=O)NC(c1ccc(N(C)C)cc1)c1c(O)ccc2ccccc12 (stereo unspecified) | inconclusive: 37.9 µM [inhibitor, partial curve, poor fit] | 
CCOc1ccc(NC(=S)N(CCN2CCOCC2)Cc2cc3cc4c(cc3[nH]c2=O)OCCO4)cc1 |  | inactive: -0.359%
N[C@@H](Cc1ccc(O)cc1)C(=O)Nc1ccc2ccccc2c1 | inconclusive: 19 µM [inhibitor, partial curve] | 
CCCCCCNC(=O)c1cc(S(=O)(=O)N2CCc3ccccc32)ccc1F |  | inactive: -2.45%
COC(=O)/C(C#N)=C/c1c[nH]c2ccccc12 | inconclusive: 23.9 µM [inhibitor, single point] | 
Cn1cccc1C(=O)NC(=O)COC(=O)C12CC3CC(CC(O)(C3)C1)C2 | active: 6.01 µM | 

Compound | Potency | activity change, negative = inhibition
Cc1ccc(C(CC(=O)O)NC(=O)CN2C(=O)c3ccccc3C2=O)cc1 (stereo unspecified) |  | inactive: 0.54%
Cc1cc(=O)[nH]c(N/N=C/c2c(C)nn(-c3ccc(F)cc3)c2Cl)n1 |  | inactive: -0.645%
CC(=O)c1sc(NC(=O)c2ccco2)nc1-c1ccccc1 | active: 10.7 µM | 
O=C(Nc1nnc(C(F)(F)F)s1)c1cccnc1 | active: 12 µM | 
Cc1ccc(-c2csc(NC(=O)CN3CCOCC3)n2)cc1C | inconclusive: 37.9 µM [inhibitor, partial curve, poor fit] | 
CN(c1ccccc1)S(=O)(=O)c1ccc(C(=O)Nc2nnc(-c3ccco3)o2)cc1 | inconclusive: 37.9 µM [inhibitor, single point] | 
COc1cccc(NC(=O)c2sc3nc4n(c(=O)c3c2C)CCC4)c1 | active: 19 µM | 
O=C(COC(=O)CCCNC(=O)c1ccc(Cl)cc1)NCc1ccccc1Cl | inconclusive: 21.3 µM [inhibitor, single point] | 
COCc1nc2sc3c(c2c(=O)[nH]1)CCCC3 | inconclusive: 26.9 µM [inhibitor, single point] | 
Cc1nc2c(C(=O)O)cnn2c(C)c1Cc1ccccc1 | inconclusive: 23.9 µM [inhibitor, partial curve, poor fit] | 
COc1cc(/C=C2/SC(=S)N(Cc3ccccc3)C2=O)cc(OC)c1O | inconclusive: 23.9 µM [inhibitor, partial curve, poor fit] | 
c1ccc2oc(NC3=NCN(CC4CCCO4)CN3)nc2c1 (stereo unspecified) | active: 16.9 µM | 
Cc1ccc2nc(N3CCN(c4cccc(Cl)c4)CC3)c3nnnn3c2c1 |  | inactive: -5.21%
COc1cccc(NC(=O)CSc2ccc(-c3ccco3)nn2)c1 | inconclusive: 33.8 µM [inhibitor, single point] | 
Cc1cc2nc3s/c(=C/c4ccc(-c5ccccc5C(=O)O)o4)c(=O)n3c2cc1C | active: 4.78 µM | 
CCN(C(=O)CSc1nnc(Nc2ccccc2)s1)C1CCS(=O)(=O)C1 (stereo unspecified) | inconclusive: 26.9 µM [inhibitor, partial curve] | 
CSc1nc(C)c2c(n1)N(c1ccc(C(C)C)cc1)CC2 | inconclusive: 26.9 µM [inhibitor, partial curve, poor fit] | 
S=C(NCCc1ccc(Cl)cc1)NC1CCCC1 | inconclusive: 37.9 µM [inhibitor, partial curve, poor fit] | 
COc1ccccc1C(N)=S |  | inactive: -0.29%
CC1CCc2sc(C(=O)NC3CCCCC3)cc2C1 (stereo unspecified) | inconclusive: 1.51 µM [inhibitor, full curve] | 
COC(=O)c1ccc(NC(=O)c2ccc(OC(C)=O)c(OC)c2)cc1 | active: 10.7 µM | 
O=C(NN1C(=O)/C(=C/c2ccc(O)cc2)SC1=S)c1cccc(O)c1 | inconclusive: 26.9 µM [inhibitor, single point] | 
CCOc1ccc(C(=O)COC(=O)CC)cc1 | active: 5.36 µM | 
